{"source": "PubChem BioAssay AID493208", "about": "(National Center for Advancing Translational Sciences (NCATS), 2011)", "note": "The campaign covered roughly 44,000 compounds. About 340 (0.77%) were called active. About 5% were inconclusive and are not listed. Calls come from the whole dose curve; as a rule, active = well fitted inhibition curve with a large enough effect; inconclusive = small, poorly fitted or top-dose-only effect; inactive = flat fitted curve, though single readings scatter. The list shows a part of the results.", "data": [{"assay": "Acumen qHTS Assay for Inhibitors of the mTORC1 Signaling Pathway in MEF (Tsc2-/-, p53-/-) Cells: Sytravon;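 note: plate controls were DMSO for no effect and rapamycin for full effect; nearly all actives have a fitted effect of over 50% in size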", "conditions": "phospho-rpS6 immunofluorescence/PI, 24 h; series mostly up to 38.3 µM; activity change, negative = inhibition: at the top concentration", "procedure,_shortened": "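Plate MEFs (Tsc2-/-, p53-/-, empty vector) in DMEM/10% FBS; after 24 h add compound, incubate 24 h at 37 degree Celsius; fix in PFA/TX-100, block, stain phospho-rpS6 and 10 uM PI; scan at 488 nm; report % positive cells.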", "values": [{"smiles": "Cc1cccc(N2CCN(c3ncnc4onc(-c5ccc(F)cc5)c34)CC2C)c1", "note": "(stereo unspecified)", "activity change, negative = inhibition": "inactive: -11%"}, {"smiles": "CCOc1ccc2nc(Cl)c(C3CC(c4ccc(C)cc4)=NN3C(=O)CCCC(=O)O)cc2c1", "note": "(stereo unspecified)", "activity change, negative = inhibition": "inactive: -3.02%"}, {"smiles": "Cc1cc(C)c2oc(-c3ccc(NC(=O)c4cc(Br)ccc4Cl)cc3)nc2c1", "activity change, negative = inhibition": "inactive: 2.53%"}, {"smiles": "Cc1ccc(NC(=O)CCc2nc3cccnc3n2-c2ccccc2)cc1", "activity change, negative = inhibition": "inactive: -17.4%"}, {"smiles": "Cc1coc2cc3oc(=O)c(CC(=O)NCCc4ccccc4F)c(C)c3cc12", "activity change, negative = inhibition": "inactive: 3.55%"}, {"smiles": "O=C(Cn1c(=O)n(Cc2ccc(C(=O)NCc3ccccc3Cl)cc2)c(=O)c2ccccc21)Nc1ccc(F)cc1", "activity change, negative = inhibition": "inactive: 3.59%"}, {"smiles": "CC(C)(C)C(=O)Nc1ccc(Cl)c(-c2nc3ccccc3[nH]2)c1", "activity change, negative = inhibition": "inactive: -0.112%"}, {"smiles": "Cc1c(-c2ccccc2)n(-c2ccc(Cl)cc2)c2nc3c(c(=O)n(C)c(=O)n3C)n12", "activity change, negative = inhibition": "inactive: -2.36%"}, {"smiles": "Cc1ccn2c(c1)nc(=O)c1cc(S(=O)(=O)N3CCC(C)CC3)c(Cl)cc12", "activity change, negative = inhibition": "inactive: 0.245%"}, {"smiles": "CCCCN(C)CCNC(=O)c1cc(-c2cccnc2)nc2ccc(S(=O)(=O)N3CCC(C)CC3)cc12", "activity change, negative = inhibition": "inactive: 0.0245%"}, {"smiles": "O=C(COc1ccccc1F)Nc1ccc(C(=O)OCc2cc(=O)n3nc(C4CC4)sc3n2)cc1", "activity change, negative = inhibition": "inactive: 0%"}, {"smiles": "CN(Cc1ccccc1)c1nc(-c2ccc(F)cc2)cc(C(F)(F)F)n1", "activity change, negative = inhibition": "inactive: -16%"}, {"smiles": "CCc1ccc(-n2c(C)nnc2SCc2nc(-c3ccc(OC)cc3)no2)cc1", "activity change, negative = inhibition": "inactive: 4.98%"}, {"smiles": "Cc1ccc(NC(=O)CCSCCc2ccccn2)cc1", "activity change, negative = inhibition": "inactive: 2.32%"}, {"smiles": "Cc1ccc(-c2cc3ncc(C(=O)c4cc([N+](=O)[O-])ccc4O)cn3n2)cc1", "activity change, negative = inhibition": "inactive: -4.43%"}, {"smiles": "O=C(Nc1ccc(Cl)cc1Cl)c1cc(S(=O)(=O)N2CCN(c3ccccc3F)CC2)ccc1F", "activity change, negative = inhibition": "inactive: 5.92%"}, {"smiles": "COc1ccc(Br)cc1CNC(=O)CCCn1c(=O)c2cccn2c2ccccc21", "activity change, negative = inhibition": "inactive: 5.27%"}, {"smiles": "CCC(C(=O)Nc1cccc(-c2cn3cccnc3n2)c1)c1ccccc1", "note": "(stereo unspecified)", "activity change, negative = inhibition": "inactive: -0.151%"}, {"smiles": "CCC(Oc1ccccc1F)C(=O)Nc1c(C(=O)c2ccccc2)oc2ccccc12", "note": "(stereo unspecified)", "activity change, negative = inhibition": "inactive: -6.93%"}, {"smiles": "CC(C)(C)OC(=O)N1CCC(c2c(C(=O)NCc3ccc4c(c3)OCO4)cnn2-c2ccc(F)cc2F)CC1", "activity change, negative = inhibition": "inactive: 2.19%"}, {"smiles": "O=C(Nc1ccc(Cl)cc1)C1CCN(c2nc3ccccc3n3cccc23)CC1", "activity change, negative = inhibition": "inactive: -12.1%"}, {"smiles": "COc1cccc(-c2nnc3n(Cc4ccc(F)cc4)c(=O)c4ccccc4n23)c1", "activity change, negative = inhibition": "inactive: -0.809%"}, {"smiles": "CN(C)c1ccc(C(CNS(=O)(=O)c2ccc(Cl)cc2)N2CCCC2)cc1", "note": "(stereo unspecified)", "activity change, negative = inhibition": "inactive: 0%"}, {"smiles": "COc1ccc(CCNC(=O)NCc2noc3ccccc23)c(OC)c1", "activity change, negative = inhibition": "inactive: -29.5%"}, {"smiles": "CC1=C(C(=O)Nc2ccc(C)cc2C)C(c2ccccc2C)n2ncnc2N1", "note": "(stereo unspecified)", "activity change, negative = inhibition": "inactive: -1.84%"}, {"smiles": "Cc1cccc(-c2nc3c(C#N)c[nH]n3c2NC2CCCCC2)c1", "activity change, negative = inhibition": "inactive: -8.98%"}]}]}
